Measured values taken from PubChem BioAssay AID1508623 (National Center for Advancing Translational Sciences (NCATS), 2021).
The campaign covered roughly 48,000 compounds. About 450 (0.94%) were called active. Roughly 19% stayed inconclusive and do not appear here. Calls come from the whole dose curve; as a rule, active = well fitted inhibition curve with a large enough effect; inconclusive = small, poorly fitted or top-dose-only effect; inactive = no such curve, though single readings can be large or run the other way. The list shows a part of the results.

Assay: Primary qHTS for Identification of Small Molecule Inhibitors of Huntingtin Promoter Activity; note: nearly all actives have a fitted effect of over 50% in size
Conditions: HEK293 HTT promoter firefly luciferase reporter (activity 0% = vehicle and -100% = no light), 24 h; series mostly up to 57.5 µM; activity change, negative = inhibition: at the top concentration
Outline: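 Luminescence was read after Dual-Glo reagent and a 10 min room-temperature incubation. Values were normalized to vehicle (0% activity) and zero RLU (-100% activity). Reporter HEK293 cells had been exposed to compounds (up to 57.5 uM final) for 24 h.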

| Structure (SMILES) | activity change, negative = inhibition |
| --- | --- |
| CCCCN(CC)CCCNC(=O)Cn1ncc2c3ccccc3n(Cc3ccccc3F)c2c1=O | inactive: 31.4% |
| O=C(Oc1ccccc1)c1cccc(C(=O)Oc2ccccc2)c1 | inactive: 37.4% [at 116 µM] |
| COc1cc(C2SC[C@H]3C(=O)N(c4ccccc4)C(=O)N23)cc(OC)c1OC (stereo partly drawn) | inactive: -26.2% |
| Cc1ccccc1-c1nc(CN2CCC(C(=O)NCCc3ccccc3)CC2)c(C)o1 | inactive: -4.39% |
| O=C(CCCn1c(=O)c2ccccc2n(CC(=O)Nc2cccc(C(F)(F)F)c2)c1=O)NCc1ccc2c(c1)OCO2 | inactive: -14.5% |
| CC(=O)Nc1c(I)c(NC(C)=O)c(I)c(C(=O)O)c1I | inactive: 10.3% |
| O=C(NCc1cccn1Cc1ccccc1)Nc1ccc(Br)cc1F | inactive: -13.1% |
| COc1cccc(N2CCN(c3ncnc4c3c(-c3ccccc3)cn4-c3ccc(C)cc3)CC2)c1 | inactive: -18.3% |
| CCCc1cc(=O)[nH]c2nnc(SCC(=O)Nc3ccc(OC)cc3)n12 | inactive: -15.3% |
| O=C(Nc1ccccc1C(=O)OCc1cc(=O)n2ccsc2n1)c1ccc(Cl)cc1 | inactive: 3.83% |
| O=C(COCc1cc(-c2ccc(F)cc2)on1)Nc1cccc(Cl)c1Cl | inactive: -1.15% |
| Cc1ccc(S(=O)(=O)c2nnn3c2nc(NC(C)c2ccccc2)c2sccc23)cc1 (stereo not drawn) | inactive: 35% |
| CCOc1ccc(N2CC(NC(=O)c3ccc(S(=O)(=O)N4CCCC4)cc3)CC2=O)cc1 (stereo not drawn) | inactive: -3.43% |
| Cc1ccc(S(=O)(=O)NC(=O)NC2CCCCC2)cc1 | inactive: 4.66% |
| COc1ccccc1CNC(=O)CCNS(=O)(=O)c1ccc2c(c1)CCCC(=O)N2 | inactive: -12.2% |
| CCOC(=O)c1c(C)[nH]c(C)c1S(=O)(=O)NCC(=O)NCc1ccc(C)cc1 | inactive: 4.66% |
| CCN(CC)S(=O)(=O)c1ccc2c(c1)nc(CN(C)C(=O)Nc1ccc(Cl)cc1)n2C | inactive: 6.63% |
| Cc1ccc(Cl)cc1NC(=O)Nc1nnc(N2CCCC(C)C2)s1 (stereo not drawn) | inactive: 4.18% |
| CN(Cc1ccc(F)cc1)S(=O)(=O)c1nnc(NC(=O)c2ccccc2Br)s1 | inactive: -32.3% |
| O=C(Cn1c(=O)n(Cc2ccc(Cl)cc2)c(=O)c2cccnc21)Nc1ccccc1C(F)(F)F | inactive: -5.11% |
| Cc1ccc(NC(=O)CNC(=O)Cn2c(C)cc3ccccc3c2=O)cc1F | inactive: -5.74% |
| COCCNC(=O)c1c(-c2ccccc2)c(-c2ccccc2)nn(C)c1=O | inactive: -5.18% |
| CCOC(=O)c1c(C)c(-c2ccccc2)n(CC(=O)NCc2cccc(OC)c2)c1C | inactive: -4.68% |
| Cc1ccc([N+](=O)[O-])cc1S(=O)(=O)N1CCn2cccc2C1c1ccccc1F (stereo not drawn) | inactive: -3.18% |

| Structure (SMILES) | activity change, negative = inhibition |
| --- | --- |
| Cn1c(=O)oc2cc(S(=O)(=O)N3CCC(C(=O)NCc4ccccc4)CC3)ccc21 | inactive: -14.4% |
| CC(=O)c1ccc(NC(=O)Cn2cnc3nc4c(cc3c2=O)CC(C)CC4)cc1 (stereo not drawn) | inactive: 7.58% |
| CCOc1ccccc1C(=O)Nc1ccc(S(=O)(=O)Nc2onc(C)c2C)cc1 | inactive: -8.46% |
| CCC(Sc1nnc(C)n2c1cc1sccc12)C(=O)Nc1ccccc1F (stereo not drawn) | inactive: -0.549% |
| CCc1cc(C(N)=S)ccn1 | inactive |
| Cc1cccc(-c2nc3scc(CCNS(=O)(=O)c4c(C)noc4C)n3n2)c1 | inactive: -14.2% |
| CCCCC(=O)Oc1ccc2oc(-c3ccc(OC)cc3)cc(=O)c2c1 | inactive: 89% |
| CCOc1cc(CNC(=O)c2ccc(Cn3c(=O)c4cccn4c4cccnc43)cc2)ccc1OC | inactive: -5.49% |
| Cc1ccc(NC(=O)CSc2nc3ccc(NC(=O)c4cccs4)cc3s2)cc1 | inactive: -1.55% |
| Cc1ccc(CNC(=O)N2CCC(CN3CCC(C)CC3)CC2)cc1 | inactive: -11.4% |
| CCN1CCN(Cc2nc3cc(NC(=O)c4cc(OC)c(OC)c(OC)c4)ccc3n2CC)CC1 | inactive: 2.48% |
| COc1ccc(S(=O)(=O)c2cn(CC(=O)Nc3cc(C)ccc3C)c3ccccc3c2=O)cc1 | inactive: -19.7% |
| COc1ccc(S(=O)(=O)n2nc(-c3ccco3)nc2NCc2ccc(N(C)C)cc2)cc1 | inactive: -25.8% |
| COc1ccc(NC(=O)Cn2cnc3sc(C)c(S(=O)(=O)N4CCN(c5ccccc5OC)CC4)c3c2=O)cc1OC | inactive: -5.45% |
| CCC1CN(C(=O)NCc2ccc(C)cc2)c2cc(Cl)ccc2O1 (stereo not drawn) | inactive: -25.1% |
| CCc1ccccc1NC(c1nnc(-c2cccc(F)c2)o1)c1ccc(F)cc1Cl (stereo not drawn) | inactive: -24.2% |
| CC(C)c1ccc(NC(=O)CN2C(=O)COc3ccc(S(=O)(=O)N4CCCCC4)cc32)cc1 | inactive: -27.6% |
| Cc1ccc2scc(N3CCc4ccccc4C3)c(=O)c2c1 | inactive: 25.8% |
| Cc1ccc(C)c(N2CCN(C(=O)Cn3ncc4c(=O)oc5ccccc5c43)CC2)c1 | inactive: 4.62% |
| COc1cc(OC)cc(-c2nc3nc(C)c(CCC(=O)Nc4ccc(C)c(C)c4)c(C)n3n2)c1 | inactive: -0.558% |
| Cn1c(=O)c2c(-c3cccc(Br)c3)n(C(C)(C)CO)cc2n(C)c1=O | inactive: -15.1% |
| Cc1cccc(C(=O)NCC(=O)OCc2cc(=O)n3nc(CC(C)C)sc3n2)c1 | inactive: -13.1% |
| COc1cccc(C(=O)N2CCN(CCc3ccncc3)CC2)c1 | inactive: -16.8% |
| O=C1N(Cc2ccccc2)c2ccc(Cl)cc2C1(O)c1c[nH]c2ccccc12 (stereo not drawn) | inactive: -9.3% |
